This experiment deals with T1, protein kinase C-delta (mouse (endogenous in MC3T3), UniProt P28867 1-674).
T1 construct: protein kinase C-delta (PKCδ), novel PKC; endogenous in MC3T3-E1 mouse osteoblasts; also called PKCδ; source: endogenous, MC3T3 whole cell extract
As to the kind of experiment: co-IP; endogenous proteins in MC3T3 whole cell lysates (500 ug; IP buffer 50 mM Tris pH 8.0, 150 mM NaCl, 1.0% Triton-X-100), 2 ug antibody overnight at 4°C, protein A/G-agarose, five washes in cold PBS; western blot of supernatant and bead fractions; cells untreated or treated with 5 ng/ml FGF2 (0, 10, 20 min). Conditions: partners not purified.

Sequence of protein kinase C-delta (P28867 whole entry, stated change not applied): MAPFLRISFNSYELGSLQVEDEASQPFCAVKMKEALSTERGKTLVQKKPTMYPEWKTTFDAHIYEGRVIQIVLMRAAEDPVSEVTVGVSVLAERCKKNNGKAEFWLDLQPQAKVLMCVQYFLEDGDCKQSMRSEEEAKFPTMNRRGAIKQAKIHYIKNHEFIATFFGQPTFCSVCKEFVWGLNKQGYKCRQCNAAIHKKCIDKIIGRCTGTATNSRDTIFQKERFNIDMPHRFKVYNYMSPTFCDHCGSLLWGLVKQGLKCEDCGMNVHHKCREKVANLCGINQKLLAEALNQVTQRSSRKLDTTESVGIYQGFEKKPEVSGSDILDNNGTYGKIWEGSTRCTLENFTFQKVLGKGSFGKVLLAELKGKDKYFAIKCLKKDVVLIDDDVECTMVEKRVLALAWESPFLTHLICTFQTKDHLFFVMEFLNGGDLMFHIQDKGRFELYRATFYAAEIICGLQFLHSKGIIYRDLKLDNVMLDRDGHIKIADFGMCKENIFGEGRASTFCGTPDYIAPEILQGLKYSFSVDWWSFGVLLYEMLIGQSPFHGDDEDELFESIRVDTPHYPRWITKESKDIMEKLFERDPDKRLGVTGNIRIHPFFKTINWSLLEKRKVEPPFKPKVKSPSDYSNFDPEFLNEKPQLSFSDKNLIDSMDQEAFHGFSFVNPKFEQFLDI

B1: connexin43 (natural protein)
chain: not shown
notes: connexin43 (Cx43), gap junction protein encoded by GJA1; endogenous in MC3T3-E1 mouse osteoblasts; Total Cx43 as detected with anti-Cx43 antibodies; the ~46 kD phosphorylated form is written apart as m6; also called Cx43; non-phosphorylated (NP) form, ~43 kD; source: endogenous, MC3T3 whole cell extract
In the case of B1, the “fold decrease in co-immunoprecipitated Cx43 versus input after 20 minutes of FGF2, relative to untreated” value is roughly 1.5 fold and the “fold increase in co-immunoprecipitated Cx43 versus input after 10 minutes of FGF2, relative to untreated” value was roughly 1.5 fold.

Source of the values: publication PMC2855512, “Interaction of connexin43 and protein kinase C-delta during FGF2 signaling” (BMC Biochemistry, 2010).
